According to article PMC6919601, “Identification of Plasmodium dipeptidyl aminopeptidase allosteric inhibitors by high throughput screening” (PLoS ONE, 2019):
Among all 110,000 compounds or so, about 230 (0.21%) showed an effect of 50% or more. This is one part of the list.

What follows are compounds tested against DPAP1 (Plasmodium falciparum, UniProt Q8IIJ9) (assay: primary screen, percent inhibition; read by cleavage of a fluorogenic dipeptide substrate; higher = more effect of the substance).
Parameters: species or system P. falciparum D10 trophozoite lysates; single well
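Further: 30 min substrate incubation versus DMSO and 10 µM JCP410 controls.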

Chain of DPAP1 (Q8IIJ9 whole entry, looked up): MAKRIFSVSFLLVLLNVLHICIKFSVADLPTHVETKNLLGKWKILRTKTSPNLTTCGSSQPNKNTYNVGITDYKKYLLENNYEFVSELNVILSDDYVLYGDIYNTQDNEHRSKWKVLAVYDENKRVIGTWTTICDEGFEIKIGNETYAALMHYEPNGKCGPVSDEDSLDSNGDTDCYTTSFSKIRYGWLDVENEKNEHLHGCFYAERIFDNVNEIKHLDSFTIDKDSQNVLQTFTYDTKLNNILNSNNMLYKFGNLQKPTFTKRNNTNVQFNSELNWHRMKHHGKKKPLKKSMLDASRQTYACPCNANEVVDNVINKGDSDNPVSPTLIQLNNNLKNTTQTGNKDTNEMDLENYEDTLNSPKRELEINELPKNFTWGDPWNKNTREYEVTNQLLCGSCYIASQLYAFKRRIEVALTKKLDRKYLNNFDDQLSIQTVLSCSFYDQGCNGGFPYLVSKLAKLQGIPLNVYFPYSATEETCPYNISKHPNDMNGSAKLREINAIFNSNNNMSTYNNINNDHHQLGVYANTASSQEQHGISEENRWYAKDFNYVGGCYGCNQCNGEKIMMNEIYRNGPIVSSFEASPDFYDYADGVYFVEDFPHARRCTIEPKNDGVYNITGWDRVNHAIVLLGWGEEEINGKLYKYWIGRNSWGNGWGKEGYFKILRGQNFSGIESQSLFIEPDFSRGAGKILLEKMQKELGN

First: N#Cc1nc2c(-c3nc4ccccc4s3)c(N)n(Cc3ccccc3)c2nc1C#N
Second: O=C(c1nc2nc(-c3ccccc3)cc(C(F)(F)F)n2n1)N1CCN(Cc2ccccc2)CC1
The “% Inhibition @ 10 uM” value of the first is higher: 11.9% for the first, -1.5% for the second.

Going from `CC[C@@H](C)[C@H](NC(=O)Nc1cccc(OC)c1)C(=O)N[C@@H](CCc1ccccc1)C(=O)COCc1ccccc1` to `CC[C@H](C)[C@H](NC(=O)N1CCC(N2CCCCC2)CC1)C(=O)N[C@@H](CCc1ccccc1)C(=O)CO`, the “% Inhibition @ 10 uM” value rises from -7.36% to 1.61%.

Compared with `CS(=O)(=O)N(CC(=O)Nc1ccc(C(N)=O)cc1)c1cccc(Cl)c1`, `O=C(Nc1ccc(Cl)cc1)C(O)c1ccccc1` (stereo not shown) is lower in “% Inhibition @ 10 uM” value: -0.872% for the first, -3.77% for the second.

Going from `Fc1ccc(N2CCN(Cc3cccs3)CC2)cc1` to `Oc1cccc(CN2CCN(c3ccc(Cl)cc3)CC2)c1`, the “% Inhibition @ 10 uM” value rises from -0.192% to 0.605%.

Compared with `CC1=Nc2nc3ccccc3n2C(c2cccnc2)/C1=C(/O)OC1CCCCC1` (stereo not shown), `S=c1nc(-c2ccccc2)n(-c2ccccc2)c2c1CCCC2` is higher in “% Inhibition @ 10 uM” value: -4.58% for the first, 3.65% for the second.

Compared with `Clc1cccc(CN2CCC(N3CCCCC3)CC2)c1`, `O=C1C2CCCCN2C(=O)N1CCN1CCN(c2ccc(F)cc2)CC1` (stereo not shown) is lower in “% Inhibition @ 10 uM” value: 3.15% for the first, 1.39% for the second.

Compared with `CCOCCCNS(=O)(=O)c1ccc(-c2cc(C(F)(F)F)no2)s1`, `CCOC(=O)c1c(S(=O)(=O)NCCCOC(C)C)c(C)n(C)c1C` is lower in “% Inhibition @ 10 uM” value: 23.6% for the first, 0.802% for the second.

First: Cc1ccnc(NC(=O)CCc2ccccc2)c1
Second: CN(C)c1ccnc(SCC(=O)Nc2ccccc2)c1C#N
The “% Inhibition @ 10 uM” value of the first is lower: -6.91% for the first, 3.47% for the second.

Going from `CCc1ccccc1NC(=O)C(C(C)C)N1C(=O)c2ccccc2C1=O` (stereo not shown) to `CCOC(=O)c1cnc2c(-c3ccccc3)c(-c3ccccc3)nn2c1C`, the “% Inhibition @ 10 uM” value rises from -6.68% to 1.31%.

Going from `O=C(COc1cc(Cl)ccc1Cl)NC(Cc1c[nH]c2ccccc12)C(=O)O` (stereo not shown) to `CC1=CCC2C(=O)N(CCc3c[nH]c4ccccc34)C(=O)C2C1` (stereo not shown), the “% Inhibition @ 10 uM” value falls from 3.27% to -2.14%.

Going from `CCOC(=O)c1c(C)[nH]c(C)c1S(=O)(=O)NC(C)Cc1ccco1` (stereo not shown) to `COc1cccc(NC(=O)CN(Cc2ccc(C)cc2)S(=O)(=O)c2ccc(C)cc2)c1`, the “% Inhibition @ 10 uM” value falls from -3.23% to -4.63%.

First: C=CCn1c(SCC(=O)NCCCO)nc2sc(C)c(C)c2c1=O
Second: O=C(Cn1c(NCCCO)nc2ccccc21)c1ccc(Cl)c(Cl)c1
The “% Inhibition @ 10 uM” value of the first is lower: -1.37% for the first, 15.6% for the second.

Compared with `O=C(c1cccs1)N1N=C(c2cccs2)CC1c1ccco1` (stereo not shown), `Cc1nn(CC(=O)NCc2cccnc2)c(=O)c2cc3sccc3n12` is higher in “% Inhibition @ 10 uM” value: -7.31% for the first, -5.19% for the second.

First: Cc1cc(=O)oc2c3c(ccc12)OCN(Cc1ccccc1)C3
Second: CCCn1c2ccccc2c2cnn(CC(=O)NCc3ccc4c(c3)OCO4)c(=O)c21
The “% Inhibition @ 10 uM” value of the first is higher: 1.02% for the first, -0.238% for the second.

Compared with `COc1ccc(Br)cc1CNC(=O)c1noc2c1CCCC2`, `COc1ccccc1C(=O)Nc1nc2c(C)cc(C)cc2s1` is lower in “% Inhibition @ 10 uM” value: -1.7% for the first, -5.94% for the second.

Compared with `O=C(/C=C/c1ccccc1)N1CCC(c2ccccc2)C1` (stereo not shown), `CC(=O)N1CCN(C2CC(=O)N(c3ccccc3)C2=O)CC1` (stereo not shown) is higher in “% Inhibition @ 10 uM” value: -1.33% for the first, 4.3% for the second.

First: COc1ccc(CN(C)C2CCN(C)CC2)cc1
Second: COC(=O)c1ccc(CN(C)C2CCN(C)CC2)cc1
The “% Inhibition @ 10 uM” value of the first is lower: -3.65% for the first, -1.64% for the second.

First: CC1CCC2C(=O)N(CNc3ccc(Cl)cc3)C(=O)C2C1 (stereo not shown)
Second: O=C(NCCC1=CCCCC1)c1ccc(CS(=O)(=O)Cc2ccc(Cl)cc2)o1
The “% Inhibition @ 10 uM” value of the first is higher: 2.7% for the first, 0.387% for the second.

First: Cc1ccc(C(C)C)cc1OCC(O)Cn1c(C)nc2ccccc21 (stereo not shown)
Second: CC(C)Cn1c(=O)c2sccc2n2c(CCCC(=O)NC(C)CCc3ccccc3)nnc12 (stereo not shown)
The “% Inhibition @ 10 uM” value of the first is higher: 23.1% for the first, -1.04% for the second.

First: O=C(NCc1cccnc1)c1sc2cc(F)ccc2c1Cl
Second: CC(=O)c1cccc(NC(=O)c2cc(F)c(Cl)nc2Cl)c1
The “% Inhibition @ 10 uM” value of the first is lower: -2.56% for the first, 1.93% for the second.

Compared with `COc1cc(-c2nc3cc(Br)c(C)nc3[nH]2)ccc1O`, `Cc1ccc(-c2csc(Nc3ccc(Cl)c(Cl)c3)n2)cc1C` is lower in “% Inhibition @ 10 uM” value: 15.9% for the first, 0.345% for the second.

Going from `CC1(C)Cc2nc3sc4c(O)ncnc4c3cc2CO1` to `CN1CCCN(Cc2coc3c(Cl)cc(Cl)cc3c2=O)CC1`, the “% Inhibition @ 10 uM” value falls from 0.884% to -7.56%.

Compared with `CC(C)c1ccc(NS(=O)(=O)c2ccc([N+](=O)[O-])cc2)cc1`, `O=C(Nc1ccc(S(=O)(=O)N2CCCCC2)cc1)c1ccc(-c2ccccc2)cc1` is lower in “% Inhibition @ 10 uM” value: -1.05% for the first, -1.17% for the second.

First: CCS(=O)(=O)c1nc(S(=O)(=O)c2ccc(C)cc2)c(N2CCN(CCO)CC2)s1
Second: COc1ccc(C2=NN(CCc3ccccn3)C(=O)C2)cc1
The “% Inhibition @ 10 uM” value of the first is higher: -0.522% for the first, -4.06% for the second.

In the case of `CCOc1cc(-n2cncn2)nc(-c2ccccc2)n1`, the “% Inhibition @ 10 uM” value is reported as 3.53%.
